In all, about 33,000 sequences were measured (“E-score (-0.5 to 0.5)”: median about -0.013, highest 2% from about 0.3 on). This is one part of the list.
The sequences below were run against T1, Msn1 (UniProt P22148) (assay: PBM E-score (8-mer binding enrichment) (E-score (-0.5 to 0.5)); higher = stronger / more preferred TF binding; most listed sequences are background and not binding sites). Details: protein concentration: 200 nM; construct: GST-full length.
T1 sequence: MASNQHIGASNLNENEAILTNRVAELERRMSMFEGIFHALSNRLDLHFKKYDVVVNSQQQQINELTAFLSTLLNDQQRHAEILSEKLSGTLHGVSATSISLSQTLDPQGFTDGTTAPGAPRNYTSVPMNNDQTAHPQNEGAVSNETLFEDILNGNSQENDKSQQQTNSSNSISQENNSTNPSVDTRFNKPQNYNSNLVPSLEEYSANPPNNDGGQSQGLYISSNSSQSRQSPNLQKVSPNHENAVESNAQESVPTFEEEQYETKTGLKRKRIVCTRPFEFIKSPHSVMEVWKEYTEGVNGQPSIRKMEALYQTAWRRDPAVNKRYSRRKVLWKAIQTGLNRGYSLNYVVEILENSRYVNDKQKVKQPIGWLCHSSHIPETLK
Method in brief: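 For each ungapped eight-base word taken together with its reverse complement, the Universal PBM Analysis Suite assigned an E-score. Binding data came from GST-tagged yeast transcription factors, applied at about 100-200 nM, on universal all-10-mer Agilent arrays made double-stranded by primer extension. Fluorescent anti-GST marked bound protein, and scans were normalised with masliner.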

Going from ATTCCTGG to GAAGGGGA, the “PBM E-score” value falls from -0.0803 to -0.144.

First: ATTACTAG
Second: CGTAGTTA
The “PBM E-score” value of the first is lower: -0.127 for the first, 0.0295 for the second.

Compared with ATCGGGAA, CACGCGTG is higher in “PBM E-score” value: 0.0406 for the first, 0.0676 for the second.

Compared with CCGATCAG, TACCCAGA is lower in “PBM E-score” value: 0.0559 for the first, -0.0576 for the second.

Compared with ACGTTAAT, CACCGAAC is lower in “PBM E-score” value: 0.0889 for the first, 0.0443 for the second.

Going from CCCCGTTC to AACCGTAC, the “PBM E-score” value rises from -0.213 to -0.044.

First: GTAATCAC
Second: AGCGCACA
The “PBM E-score” value of the first is higher: 0.00376 for the first, -0.144 for the second.

Compared with GATAAGCC, ACCCACCG is lower in “PBM E-score” value: -0.115 for the first, -0.131 for the second.

Compared with CCGCTCCA, AGGATCGC is higher in “PBM E-score” value: -0.179 for the first, 0.0678 for the second.

First: CGAGTACA
Second: GCAGGCAC
The “PBM E-score” value of the first is higher: 0.0998 for the first, -0.252 for the second.

Compared with ACGACCGT, ACCAACAC is higher in “PBM E-score” value: -0.222 for the first, -0.0179 for the second.

Compared with CCGTCCAA, AGCGTTTG is higher in “PBM E-score” value: 0.0386 for the first, 0.0422 for the second.

Going from GGGCGGGA to CGGAGTGC, the “PBM E-score” value falls from 0.106 to -0.0772.

Going from ACAGGGGT to AGCAGCAA, the “PBM E-score” value rises from -0.329 to 0.0158.

Going from TCGGGCCA to AACTCACA, the “PBM E-score” value rises from -0.103 to 0.0821.

Compared with CCAACCAC, ACTCTTTG is lower in “PBM E-score” value: 0.0536 for the first, -0.0656 for the second.

First: AGCTGCAC
Second: GACTCCAC
The “PBM E-score” value of the first is higher: -0.164 for the first, -0.324 for the second.

First: ACTACCCT
Second: ACCCTTAA
The “PBM E-score” value of the first is lower: -0.202 for the first, -0.119 for the second.

First: CTAAGAAA
Second: GACGTCAC
The “PBM E-score” value of the first is higher: 0.228 for the first, 0.0733 for the second.

First: AAAAGGAT
Second: ACCATAAC
The “PBM E-score” value of the first is higher: 0.26 for the first, -0.0245 for the second.

First: CCTCTGTC
Second: CACGTAAA
The “PBM E-score” value of the first is lower: -0.12 for the first, -0.102 for the second.

Compared with AGAAACAC, CCCGCTAC is lower in “PBM E-score” value: -0.0303 for the first, -0.0742 for the second.

First: ACTTACAT
Second: AGGAGTAG
The “PBM E-score” value of the first is higher: -0.0555 for the first, -0.0789 for the second.

First: AGATAGGA
Second: ACATCGAA
The “PBM E-score” value of the first is lower: -0.111 for the first, 0.186 for the second.

Going from AGGACCAA to CCACCTAC, the “PBM E-score” value falls from 0.0094 to -0.0906.

Compared with CATAAAAG, AACTCCAA is higher in “PBM E-score” value: 0.0593 for the first, 0.095 for the second.

Compared with CAACAAGA, GAGTTCCA is lower in “PBM E-score” value: 0.0127 for the first, -0.0703 for the second.

First: AGCGTGCC
Second: CTCAGTAC
The “PBM E-score” value of the first is lower: -0.224 for the first, 0.121 for the second.

Going from ACTGGCTA to CGTTTCTC, the “PBM E-score” value falls from -0.128 to -0.159.

Compared with CGCCCCAA, GCTGTCCC is lower in “PBM E-score” value: 0.0901 for the first, -0.0712 for the second.

First: AATCCATC
Second: CTGTAGCA
The “PBM E-score” value of the first is higher: -0.105 for the first, -0.156 for the second.

First: GCTTAGAA
Second: GGTAGGGA
The “PBM E-score” value of the first is higher: -0.0192 for the first, -0.129 for the second.

Compared with AAGGCCGG, TCGTTACA is lower in “PBM E-score” value: 0.0674 for the first, -0.055 for the second.

First: ATCTTAAT
Second: CTGGTTAC
The “PBM E-score” value of the first is higher: 0.0934 for the first, -0.0717 for the second.

Compared with GGCTCGGA, CAAGCGAA is higher in “PBM E-score” value: -0.00346 for the first, 0.0496 for the second.

First: ATTTGGGG
Second: TCGGCCCA
The “PBM E-score” value of the first is lower: -0.0451 for the first, 0.0853 for the second.

Compared with CAAAGTTA, CCTTAGTC is lower in “PBM E-score” value: 0.162 for the first, -0.0799 for the second.

First: AGCAACTA
Second: GAGGCGAC
The “PBM E-score” value of the first is higher: 0.118 for the first, -0.115 for the second.

Compared with GCTTCTAA, CGCAACAA is higher in “PBM E-score” value: -0.151 for the first, 0.069 for the second.

Compared with CCCTTAAA, CCCATATC is lower in “PBM E-score” value: -0.0133 for the first, -0.0275 for the second.

Compared with ATTTCCAG, GCGCCTCA is lower in “PBM E-score” value: 0.0655 for the first, -0.0816 for the second.

First: CGAACGCA
Second: AACCGGCA
The “PBM E-score” value of the first is higher: 0.221 for the first, -0.0265 for the second.

Compared with CCATGCAG, ATCGCGGC is higher in “PBM E-score” value: -0.187 for the first, 0.195 for the second.

Compared with CACTCAAG, ACATTTCT is higher in “PBM E-score” value: -0.265 for the first, 0.204 for the second.

Going from AGGGCAAC to AAAACAAC, the “PBM E-score” value rises from -0.00454 to 0.00138.

Compared with ATTGCTTC, AAAATAAG is higher in “PBM E-score” value: 0.0557 for the first, 0.167 for the second.

Compared with CCTCCATC, CAGGTTGA is higher in “PBM E-score” value: -0.375 for the first, -0.169 for the second.

Compared with CACATAGG, ACCAACTA is higher in “PBM E-score” value: -0.11 for the first, 0.0419 for the second.

Going from TCCGGAGA to CATCATCG, the “PBM E-score” value falls from 0.0632 to -0.0227.

First: CCACCTAG
Second: AAGACCGC
The “PBM E-score” value of the first is lower: -0.169 for the first, -0.0468 for the second.

Going from ATTTACGA to GAGTGATC, the “PBM E-score” value falls from 0.128 to -0.0219.

Going from ATCTGACC to GCTGGGCA, the “PBM E-score” value falls from 0.106 to -0.119.

Going from TAGGCAGA to AGCGTGAA, the “PBM E-score” value falls from 0.128 to -0.135.

Going from AGGTCCTC to CGCTGTAC, the “PBM E-score” value rises from -0.119 to 0.0558.

Going from CGCCGTCA to TCCGCTAA, the “PBM E-score” value rises from -0.114 to -0.0914.

First: ACCCTTCT
Second: ACATGGGC
The “PBM E-score” value of the first is lower: -0.157 for the first, 0.154 for the second.

Going from GAGCGCGA to CACGGAAG, the “PBM E-score” value falls from 0.156 to -0.0308.

Going from AACGTAGC to ATGACTTA, the “PBM E-score” value rises from 0.0549 to 0.194.

Going from GCTGCTCC to CTGTAGAC, the “PBM E-score” value rises from -0.218 to 0.0314.

Compared with CGCGCGCG, ATACTCGA is lower in “PBM E-score” value: -0.00147 for the first, -0.012 for the second.

Compared with CTGGATTA, TCGCTGCA is lower in “PBM E-score” value: 0.0423 for the first, -0.0828 for the second.

Going from TTACACAA to AAGCATCA, the “PBM E-score” value falls from 0.208 to -0.146.

First: ACCACTTC
Second: AACGCAAT
The “PBM E-score” value of the first is lower: -0.191 for the first, 0.00875 for the second.

Compared with ATAGTACA, CGGTGTAG is lower in “PBM E-score” value: 0.219 for the first, -0.0126 for the second.

Going from ACTTGCGC to CCATTCTC, the “PBM E-score” value falls from 0.0802 to -0.018.

First: AGCTGCGC
Second: AGGGAAGG
The “PBM E-score” value of the first is higher: -0.106 for the first, -0.354 for the second.

Compared with TAAATCTA, GCTCCCGA is lower in “PBM E-score” value: 0.0426 for the first, -0.179 for the second.

First: CGAGGTCA
Second: CAAAATCA
The “PBM E-score” value of the first is lower: -0.00251 for the first, 0.23 for the second.

Compared with TCTCAAGA, AAGAGTAC is lower in “PBM E-score” value: 0.102 for the first, 0.038 for the second.

Compared with CCGCGCCC, AATAGAGC is higher in “PBM E-score” value: -0.268 for the first, 0.0385 for the second.

Compared with GGCCCGGA, GTCTTGGA is higher in “PBM E-score” value: -0.137 for the first, 0.0469 for the second.

Compared with CGTATGGC, CCCGTTAG is lower in “PBM E-score” value: 0.0738 for the first, -0.265 for the second.

First: AGGCCGGC
Second: ATATGAAT
The “PBM E-score” value of the first is lower: 0.066 for the first, 0.187 for the second.

First: ACCCCAGC
Second: ATTACGAA
The “PBM E-score” value of the first is lower: -0.154 for the first, 0.103 for the second.

Compared with CCCGACAG, ACGCAAAC is lower in “PBM E-score” value: 0.052 for the first, -0.0978 for the second.

Going from TATTTTAA to CCCATCAG, the “PBM E-score” value falls from 0.17 to -0.317.

Compared with CGGCATAG, CCCAGCCA is lower in “PBM E-score” value: -0.0356 for the first, -0.156 for the second.

Compared with ATGTCTAG, CCTCGGTA is lower in “PBM E-score” value: 0.373 for the first, -0.0171 for the second.

Going from ATACGTGA to CGCGTTAG, the “PBM E-score” value falls from 0.049 to -0.0976.

Compared with ACCTATGC, ACGTCTTC is higher in “PBM E-score” value: -0.0639 for the first, -0.00769 for the second.

Compared with ATGAACTA, GATGGTGC is lower in “PBM E-score” value: -0.0141 for the first, -0.309 for the second.

Going from AGGTGCTA to AACTTTCA, the “PBM E-score” value rises from 0.0106 to 0.0329.

Compared with GCTCTCCA, CTGACCGA is higher in “PBM E-score” value: -0.233 for the first, 0.00348 for the second.

Compared with AAAGAACC, AAAGGCCT is lower in “PBM E-score” value: 0.126 for the first, -0.122 for the second.

Going from GCAGCGTA to CTTTTTGC, the “PBM E-score” value rises from -0.126 to 0.0698.

Going from AGATGTAG to TACTGATA, the “PBM E-score” value rises from -0.094 to 0.148.

— the supplement of paper PMC3334620
